For 27 compounds, cytotoxicity call and growth inhibition call results are on record in the antibiotic and cytotoxicity screens of Wong et al. (2023).

Some of the results follow.

For one assay, the system named is HSkMC. Put plainly: cytotoxicity call (relative viability < 0.9). To be noted: 10 µM.
The next assay concerns HepG2. Put plainly: cytotoxicity call (relative viability < 0.9). To be noted: 10 µM.
The subject of another assay is S. aureus RN4220. Description: growth inhibition call (relative growth <= 0.2). The conditions noted are these: 50 µM.

Take `Cc1cccc(S(=O)(=O)N2C[C@@H](O)COC[C@@H]3O[C@H](CC(=O)N4CCN(C)CC4)CC[C@H]32)c1`: the cytotoxicity call with HSkMC and in the assay with HepG2 was “inactive” throughout. Also, in the assay with S. aureus RN4220, the growth inhibition call is “inactive”.
For the compound `Cc1nc(C)c(Cl)c(O)c1Cl`, the cytotoxicity call with HSkMC and in the assay with HepG2 was “inactive” in each case. The growth inhibition call with S. aureus RN4220 is “inactive”.
With `N=C(N)SCc1csc(N)n1`, the cytotoxicity call with HSkMC and in the assay with HepG2 was “inactive” throughout. The growth inhibition call in the assay with S. aureus RN4220 is “inactive”.
As for `C[C@H](CO)N1C[C@H](C)[C@H](CN(C)C(=O)NC2CCCCC2)Oc2ccc(NC(=O)c3ccncc3)cc2CC1=O`, the cytotoxicity call in the assay on HSkMC and in the assay on HepG2 was “inactive” throughout. Moreover, in the assay with S. aureus RN4220, the growth inhibition call was “inactive”.
As for `C[C@@H]1CC[C@@]2(OC1)O[C@H]1C[C@H]3[C@H]4C[C@@H](O)[C@H]5C[C@@H](O[C@@H]6O[C@H](CO)[C@H](O[C@@H]7O[C@H](CO)[C@@H](O)[C@H](O[C@@H]8OC[C@@H](O)[C@H](O)[C@H]8O)[C@H]7O[C@@H]7O[C@H](CO)[C@@H](O[C@@H]8O[C@H](CO)[C@@H](O)[C@H](O)[C@H]8O)[C@H](O)[C@H]7O)[C@H](O)[C@H]6O)[C@H](O)C[C@]5(C)[C@@H]4CC[C@]3(C)[C@H]1[C@@H]2C`, the cytotoxicity call in the assay on HSkMC and in the assay on HepG2 was “active” in each case. The growth inhibition call in the assay with S. aureus RN4220 is “inactive”.
For `C[C@H]1CN([C@@H](C)CO)C(=O)c2ccccc2-c2ccccc2CO[C@@H]1CN(C)C(=O)c1cc(Cl)cc(Cl)c1`, the cytotoxicity call in the assay on HSkMC and in the assay with HepG2 was “inactive” in each case. The growth inhibition call with S. aureus RN4220 was “inactive”.
Turning to `CC(C)c1cc2c(cc1S(=O)(=O)O)[C@@]1(C)CCC[C@@](C)(C(=O)O)[C@@H]1CC2`, the cytotoxicity call in the assay with HSkMC and in the assay on HepG2 was “inactive” each time. Moreover, the growth inhibition call in the assay with S. aureus RN4220 was “inactive”.
As for `CC1c2cccc(O)c2C(=O)C2=C(O)C3(O)C(=O)C(C(N)=O)=C(O)C(N(C)C)C3C(O)C21.Cl` (stereo unspecified), the cytotoxicity call in the assay on HSkMC and in the assay on HepG2 was “inactive” throughout. The growth inhibition call with S. aureus RN4220 is “inactive”.
For `C[C@@H]1CCCCO[C@@H](CN(C)CC2CC2)[C@@H](C)CN([C@H](C)CO)C(=O)c2cc(NC(=O)CCCCCC(=O)Nc3ccccc3N)ccc2O1`, the cytotoxicity call in the assay on HSkMC and in the assay on HepG2 was “inactive” in each case. Also, the growth inhibition call in the assay on S. aureus RN4220 is “inactive”.
With `C[C@@H]1CN([C@@H](C)CO)C(=O)Cc2cc(NC(=O)Nc3cccc4ccccc34)ccc2O[C@@H]1CN(C)S(=O)(=O)c1cccs1`, the cytotoxicity call with HSkMC was “inactive”. In addition, in the assay with HepG2, the cytotoxicity call was “active”. In addition, the growth inhibition call in the assay on S. aureus RN4220 is “inactive”.
`C=CCN1C[C@@H](C(=O)O)CCC1=O`: the cytotoxicity call in the assay with HSkMC and in the assay on HepG2 was “inactive” in each case. In addition, the growth inhibition call in the assay on S. aureus RN4220 is “inactive”.
For `COCCO[C@H]1CCN[C@H]1Cc1cnn(C)c1`, the cytotoxicity call in the assay on HSkMC and in the assay on HepG2 was “inactive” each time. In the assay on S. aureus RN4220, the growth inhibition call is “inactive”.
As to `C[C@H](CO)N1C[C@H](C)[C@H](CN(C)C(=O)Nc2ccc3c(c2)OCO3)Oc2ccc(NC(=O)CCN3CCOCC3)cc2CC1=O`, the cytotoxicity call with HSkMC and in the assay on HepG2 was “inactive” throughout. The growth inhibition call in the assay on S. aureus RN4220 was “inactive”.
Consider `C[C@H]1CN([C@@H](C)CO)C(=O)c2cc(NC(=O)Cc3cn(C)c4ccccc34)ccc2O[C@@H]1CN(C)Cc1ccc(Oc2ccccc2)cc1`, for which the cytotoxicity call in the assay on HSkMC and in the assay with HepG2 was “active” in each case. Besides, the growth inhibition call in the assay with S. aureus RN4220 was “inactive”.
`C[C@@H]1CN([C@H](C)CO)C(=O)c2cc(NC(=O)Nc3ccccc3)ccc2O[C@@H](C)CCCCO[C@H]1CN(C)Cc1ccc(C(F)(F)F)cc1`: the cytotoxicity call in the assay with HSkMC and in the assay with HepG2 was “active” throughout. In the assay with S. aureus RN4220, the growth inhibition call is “inactive”.
Regarding `O=C(C[C@H]1CC[C@@H](NS(=O)(=O)c2ccccc2)[C@@H](CO)O1)NCc1ccncn1`, the cytotoxicity call in the assay with HSkMC and in the assay with HepG2 was “inactive” throughout. Further, the growth inhibition call in the assay with S. aureus RN4220 is “inactive”.
On to `COc1ccc(NC(=O)N(C)C[C@@H]2Oc3c(NS(=O)(=O)c4cn(C)cn4)cccc3C(=O)N([C@H](C)CO)C[C@@H]2C)cc1`, for which the cytotoxicity call in the assay on HSkMC and in the assay on HepG2 was “inactive” in each case. Further, the growth inhibition call in the assay with S. aureus RN4220 was “inactive”.
In the case of `Cc1ccc(S(=O)(=O)Nc2cccc3c2O[C@H](CN(C)S(=O)(=O)c2cccs2)[C@@H](C)CN([C@@H](C)CO)C3=O)cc1`, the cytotoxicity call with HSkMC and with HepG2 was “inactive” each time. For the same compound, the growth inhibition call with S. aureus RN4220 is “inactive”.
Take `COc1ccc(S(=O)(=O)Nc2ccc3c(c2)C(=O)N([C@H](C)CO)C[C@H](C)[C@@H](CN(C)C(=O)Nc2cccc4ccccc24)O3)cc1`: the cytotoxicity call with HSkMC and with HepG2 was “inactive” each time. In addition, the growth inhibition call with S. aureus RN4220 was “inactive”.
For `O=C(Nc1ccc(Cl)cc1)c1sc2ccccc2c1Cl`, the cytotoxicity call with HSkMC and in the assay on HepG2 was “inactive” each time. Also, the growth inhibition call in the assay on S. aureus RN4220 was “inactive”.
As for `CCn1c2c(c3cc(C4CCCCC4)ccc31)CCCC2=O`, the cytotoxicity call in the assay on HSkMC and with HepG2 was “inactive” throughout. In addition, in the assay with S. aureus RN4220, the growth inhibition call was “inactive”.
In the case of `O=C(O)[C@H](O)[C@@H](O)[C@H](O)[C@H](O)CO`, the cytotoxicity call in the assay on HSkMC and in the assay on HepG2 was “inactive” throughout. Moreover, the growth inhibition call in the assay with S. aureus RN4220 is “inactive”.
For the compound `C[C@@H]1CN([C@@H](C)CO)C(=O)c2cc(NC(=O)CCN3CCOCC3)ccc2O[C@H]1CN(C)S(C)(=O)=O`, the cytotoxicity call with HSkMC and in the assay on HepG2 was “inactive” throughout. Further, in the assay on S. aureus RN4220, the growth inhibition call was “inactive”.
`CCCN1C[C@@H](C)[C@H](OC)CN(C)C(=O)c2cc(NS(=O)(=O)c3cn(C)cn3)ccc2OC[C@@H]1C`: the cytotoxicity call in the assay with HSkMC and with HepG2 was “inactive” each time. Besides, the growth inhibition call in the assay with S. aureus RN4220 was “inactive”.
For `CO[C@@H]1CN(C)C(=O)c2ccc(NS(=O)(=O)c3cn(C)cn3)cc2OC[C@H](C)N(Cc2cccc(F)c2)C[C@@H]1C`, the cytotoxicity call with HSkMC and with HepG2 was “inactive” in each case. Further, the growth inhibition call with S. aureus RN4220 is “inactive”.
Turning to `CC1(C)C[C@H](n2[nH]c(=O)cc2N)CCO1`, the cytotoxicity call in the assay on HSkMC and in the assay on HepG2 was “inactive” each time. Further, the growth inhibition call in the assay with S. aureus RN4220 was “inactive”.
For the compound `O=C(Cc1ccccn1)NCC[C@@H]1CC[C@@H](NC(=O)CN2CCOCC2)[C@H](CO)O1`, the cytotoxicity call in the assay on HSkMC (human skeletal muscle cells) and in the assay with HepG2 was “inactive” each time. In the assay with S. aureus RN4220, the growth inhibition call was “inactive”.
